The target of the assay is MarR (i.e., MBP-MarR144) to marO (Escherichia coli, UniProt P27245). The format is binding.

The record followed here is US6391545B1 (priority 1992, dated 2002).

MarR (i.e., MBP-MarR144) to marO, sequence (P27245 whole entry): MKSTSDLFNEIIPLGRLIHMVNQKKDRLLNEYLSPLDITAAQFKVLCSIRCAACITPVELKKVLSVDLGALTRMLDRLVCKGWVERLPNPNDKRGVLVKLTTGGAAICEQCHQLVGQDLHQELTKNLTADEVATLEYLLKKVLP

`O=[N+]([O-])c1ccc(O)c([N+](=O)[O-])c1` [DNP]: the “reversal of the binding of MarR (MBP-MarR144) to marO” value is listed as “caused reversal of the binding”.
